Biological target: the molecule itself
Assay: thioflavin S fluorescence kinetics of self-assembly

B1: dGAE-C322A (domain or fragment)
chain: not shown
binding result: binds

Source: article doi:10.1101/2025.02.05.636249 (bioRxiv, 2025)
